{"source": "ChEMBL document CHEMBL4888484", "about": "“Replenishing the malaria drug discovery pipeline: Screening and hit evaluation of the MMV Hit Generation Library 1 (HGL1) against asexual blood stage Plasmodium falciparum ,using a nano luciferase reporter read-out” (2022)", "note": "The campaign covered roughly 150,000 compounds. About 540 (0.36%) showed an effect of 50% or more. The list shows a part of the results."}
{"system": "Plasmodium falciparum", "test": "Primary screen in NF54 nanoGlo assay, in single point, at 2uM, 72h; a lower Z score goes with more inhibition", "type": "functional, Erythrocyte", "conditions": "timepoint 72 hour", "units": {"% Inhibition": "%"}}
{"smiles": "COc1cccc(-c2cc(C(F)(F)F)n3ncc(C(=O)N4CCc5ccccc5C4)c3n2)c1", "% Inhibition": -8, "Z score": 1.13}
{"smiles": "Cc1c(Nc2cnn(C)c2)nn2c(C(F)(F)F)nnc2c1C", "% Inhibition": -1, "Z score": 0.12}
{"smiles": "CC1=C(CCN2CCc3[nH]cnc3[C@@H]2c2cnn(C)c2)C(C)(C)CCC1", "% Inhibition": 10, "Z score": -1.83}
{"smiles": "O=C(CN1CCCC1)NCCc1ccccc1", "% Inhibition": -7, "Z score": 1.29}
{"smiles": "CCOCCCNCc1ccc(F)cc1Cl", "% Inhibition": -15, "Z score": 2.51}
{"smiles": "COc1ccc([C@@H]2C[C@H](NC(C)=O)C[C@H](CC(C)C)O2)c(C)c1C", "% Inhibition": 6, "Z score": -1.28}
{"smiles": "O=C(NCCCc1ccccc1)N1CCN(C(c2ccccc2)c2ccccc2)CC1", "% Inhibition": -9, "Z score": 1.41}
{"smiles": "C[C@@H](CCn1cccn1)Nc1cccc(CO)c1", "% Inhibition": -1, "Z score": 0.14}
{"smiles": "O=C(CCCn1cccn1)NCc1cc(C2CC2)[nH]n1", "% Inhibition": -17, "Z score": 3.32}
{"smiles": "CCn1ncc(C(=O)N[C@@H](C)c2ccc(C)s2)c1C(F)(F)F", "% Inhibition": -9, "Z score": 1.17}
{"smiles": "CCS(=O)(=O)N1CCCN(C(=O)C2CCCC2)CC1", "% Inhibition": -13, "Z score": 2.17}
{"smiles": "N#Cc1c(-c2cccnc2)cc(-c2cccc(O)c2)nc1N", "% Inhibition": 0, "Z score": 0.06}
{"smiles": "CC(C)(CO)C(C)(C)NCc1ccc(Cl)cc1", "% Inhibition": -6, "Z score": 0.66}
{"smiles": "O=S(=O)(c1cccc2ccncc12)N1CCCC1C1CCCO1", "note": "(configuration not stated)", "% Inhibition": -15, "Z score": 1.84}
{"smiles": "COc1ccc(C(=O)Nc2cccnc2-n2cccn2)cc1OC", "% Inhibition": 7, "Z score": -1.36}
{"smiles": "c1ccc2c(c1)CC(n1cc(-c3ncc[nH]3)nn1)C2", "% Inhibition": 6, "Z score": -1.05}
{"smiles": "COc1ccc(N2CCN(C(=O)CN3C(=O)COc4cc(C(C)(C)C)ccc43)CC2)cc1", "% Inhibition": 31, "Z score": -3.51}
{"smiles": "CCCCNC(=O)C1CCN(CC(O)CN2CCC(C(=O)NCCCC)CC2)CC1", "% Inhibition": 4, "Z score": -0.74}
{"smiles": "Cc1ccc([C@H]2CN(C(=O)c3cc4ncccn4n3)C[C@@H]2N(C)C)cc1", "% Inhibition": 0, "Z score": -0.04}
{"smiles": "CC(NCCC1CCCO1)c1ccccc1Cl", "note": "(configuration not stated)", "% Inhibition": -4, "Z score": 0.64}
{"smiles": "Cc1nc(CCCNC(=O)c2ccc(-c3cncc(O)n3)cc2)sc1C", "% Inhibition": 9, "Z score": -1.52}
{"smiles": "CC1OCCC1S(=O)(=O)N1CCc2cccc(F)c2C1C", "note": "(configuration not stated)", "% Inhibition": -5, "Z score": 0.68}
{"smiles": "O=C(Nc1ccn(C2CCOCC2)n1)Nc1ncccc1N1CCOCC1", "% Inhibition": -14, "Z score": 1.55}
{"smiles": "CC(C)c1ccc(N2CC[C@H](C(C)(C)O)C2)nn1", "% Inhibition": -3, "Z score": 0.46}
{"smiles": "CCN(CC)S(=O)(=O)c1cc(-c2ccc(=O)[nH]n2)cc(C)c1C", "% Inhibition": -19, "Z score": 2.54}
{"smiles": "CNc1nc(C(=O)NCCc2nc(C(C)C)cs2)cs1", "% Inhibition": -19, "Z score": 1.69}
{"smiles": "C[C@](O)(CNC(=O)c1sccc1-n1ccnn1)C(F)(F)F", "% Inhibition": 5, "Z score": -1.05}
{"smiles": "Cc1ccc(S(=O)(=O)N[C@@H](C(C)C)C2(CO)CCC2)cn1", "% Inhibition": -13, "Z score": 1.75}
{"smiles": "O=C(Cc1cccs1)NCC1(O)CCCC1", "% Inhibition": -14, "Z score": 2.36}
{"smiles": "O=C(COCC(=O)Nc1ccccn1)Nc1ccccc1", "% Inhibition": -2, "Z score": 0.24}
{"smiles": "COc1ccc(F)c(C(=O)N2CCC3(CC2)[C@H](O)C[C@@H]3OC)c1F", "% Inhibition": 5, "Z score": -0.98}
{"smiles": "Cc1ccccc1NC(=O)C(=O)N[C@@H](C)CCc1ccccc1", "% Inhibition": 2, "Z score": -0.4}
{"smiles": "C[C@H](NC(=O)c1cncn1C)c1nnc(N)s1", "% Inhibition": 4, "Z score": -0.8}
{"smiles": "C=CCCC(=O)N1CCCN(c2ccc3nnc(C)n3n2)CC1", "% Inhibition": -15, "Z score": 1.74}
{"smiles": "CN(C)C[C@H]1C[C@H](CO)CN(C(=O)CCc2ccccc2Cl)C1", "% Inhibition": -10, "Z score": 1.27}
{"smiles": "O=C(Cn1c2c(c(=O)n1-c1ccccc1)Cc1ccccc1O2)Nc1cccc2ccccc12", "% Inhibition": -18, "Z score": 1.78}
{"smiles": "COc1ccc(C2CC(C(=O)NCc3cccnc3)N(C)S(=O)(=O)N2)cc1", "note": "(configuration not stated)", "% Inhibition": -5, "Z score": 0.57}
{"smiles": "COC[C@H](C)NCc1cc(C)c(C)cc1C", "% Inhibition": -6, "Z score": 0.76}
{"smiles": "CCn1nc(CNc2nccc(-c3cc(C(=O)O)ccn3)n2)c2ccccc21", "% Inhibition": -16, "Z score": 1.99}
{"smiles": "c1cncc(Nc2nncn2Cc2nccs2)c1", "% Inhibition": -7, "Z score": 1.15}
{"smiles": "Cc1cc(C(=O)Cn2c(=O)c(C#N)c3n(c2=O)CCC3)c(C)[nH]1", "% Inhibition": -15, "Z score": 2.2}
{"smiles": "CN[C@@H](C)c1nc(CC(N)=O)nn1C1Cc2ccccc2C1", "% Inhibition": 6, "Z score": -0.78}
{"smiles": "Cc1n[nH]c(C(=O)N2C[C@H]3CCC[C@@H](C2)N(C)C3=O)c1Cl", "% Inhibition": -13, "Z score": 1.64}
{"smiles": "Cc1nc(-c2csc(S(=O)(=O)Nc3ccccc3C(C)C)c2)sc1C", "% Inhibition": 5, "Z score": -0.59}
{"smiles": "O=C(NCc1ncc[nH]1)c1ccc2c(c1)OCO2", "% Inhibition": 4, "Z score": -0.45}
{"smiles": "CCOc1ccc(OCc2n[nH]c([C@H]3CCOC(C)(C)C3)n2)cc1", "% Inhibition": -2, "Z score": 0.37}
{"smiles": "Cc1noc(-c2sccc2NC(=O)c2ccccn2)n1", "% Inhibition": -1, "Z score": 0.1}
{"smiles": "COc1ccc(-c2c(C)n[nH]c2NC(=O)CCc2ccccc2)cc1OC", "% Inhibition": -10, "Z score": 1.49}
{"smiles": "N#CC1(CCCn2cnc3c2CCCC3)CCOCC1", "% Inhibition": 3, "Z score": -0.43}
{"smiles": "C#CCn1cc(CN(C)C(=O)NC2CC2c2cccc(Cl)c2)cn1", "note": "(configuration not stated)", "% Inhibition": -4, "Z score": 0.57}
{"smiles": "Cc1nc(-c2ncc(C(=O)N3CCO[C@H](c4ccccc4)C3)c(O)n2)cs1", "% Inhibition": -11, "Z score": 1.81}
{"smiles": "CCc1ccc2ncc(C#N)c(N3CCC(C(=O)Nc4cccc(C(F)(F)F)c4)CC3)c2c1", "% Inhibition": 3, "Z score": -0.58}
{"smiles": "COc1ccc([C@@H]2CN(C(=O)NCc3cc[nH]n3)CCO2)cc1OC", "% Inhibition": 5, "Z score": -0.91}
{"smiles": "O=C(c1c(F)c(F)cc(F)c1F)N1CCN(c2nccc(-c3ccc(Oc4ccccc4)cc3)n2)CC1", "% Inhibition": 0, "Z score": 0.04}
{"smiles": "Cc1cc(C)c(CN2CCCN(C)CC2)c(-n2cccn2)c1", "% Inhibition": 6, "Z score": -1.18}
{"smiles": "COc1ccc(-c2nc(CN3CC[C@H](N)C3)c(C)o2)c2ccccc12", "% Inhibition": 7, "Z score": -0.98}
{"smiles": "COCCNC(=O)NC[C@H](O)c1ccc2c(ccn2C)c1", "% Inhibition": 1, "Z score": -0.14}
{"smiles": "COc1ccc(-c2nc(-c3ccc4c(c3)ncn4CCC(=O)N3CCCC3)no2)c(C)c1", "% Inhibition": 4, "Z score": -0.57}
{"smiles": "Cc1ccc2oc(-c3noc([C@]45CNC[C@H]4CCOC5)n3)cc2c1", "% Inhibition": 4, "Z score": -0.83}
{"smiles": "Nc1cc(C2CCN(C(=O)Nc3ccc(F)cc3)CC2)no1", "% Inhibition": -3, "Z score": 0.5}
{"smiles": "Cc1cc(C(=O)N2CCOCC2)nn1CC(=O)Nc1ccc(F)c(Cl)c1", "% Inhibition": -7, "Z score": 1.2}
{"smiles": "CCc1cc(Cn2ccnc2-c2ccnc(CC)n2)on1", "% Inhibition": -11, "Z score": 1.65}
{"smiles": "COc1ccc(-c2cnc3ncnn3c2N2CCN(C(C)=O)CC2)cc1OC", "% Inhibition": -8, "Z score": 1.03}
{"smiles": "O=C(O)c1ccc(-c2ccc(CNC3CCCC3)o2)cc1", "% Inhibition": -10, "Z score": 1.87}
{"smiles": "CN(C)C1CCCC1Oc1nccs1", "note": "(configuration not stated)", "% Inhibition": -6, "Z score": 1.16}
{"smiles": "O=C(Cc1ccc(F)cc1Cl)N[C@H]1CCOC2(CCOCC2)C1", "% Inhibition": -9, "Z score": 1.89}
{"smiles": "Fc1ccc(OCc2nc([C@@H]3CCCCN3)n(CC(F)(F)F)n2)cc1", "% Inhibition": 1, "Z score": -0.11}
{"smiles": "CC(C)NCCNC1CCOC1c1ccc(Cl)c(F)c1", "note": "(configuration not stated)", "% Inhibition": -15, "Z score": 1.92}
{"smiles": "C[C@H]1CN(c2cccc(Cl)c2)CCN1c1nccn2nnnc12", "% Inhibition": -16, "Z score": 2.47}
{"smiles": "Cc1cc(C)c(C#N)c(N(C)CCCn2cccn2)n1", "% Inhibition": -18, "Z score": 1.97}
{"smiles": "O=C(c1ccc(S(=O)(=O)NC2CC2)o1)N1CCN(c2ccccc2F)CC1", "% Inhibition": -11, "Z score": 1.55}
{"smiles": "Cc1nn(C)c(Cl)c1S(=O)(=O)N1CCn2cncc2C1", "% Inhibition": -3, "Z score": 0.31}
{"smiles": "Cn1cc(-c2ccc3c(n2)N(C(=O)CCc2c[nH]c4ccccc24)CCC3)cn1", "% Inhibition": 12, "Z score": -1.36}
{"smiles": "O=C(Cn1ncc(=O)c2ccccc21)N1CCC(C(=O)N2CCCCCC2)CC1", "% Inhibition": 2, "Z score": -0.35}
{"smiles": "COc1cc2ccccc2cc1C(=O)Nc1nnc(-c2ccco2)o1", "% Inhibition": -2, "Z score": 0.41}
{"smiles": "C/C=C/CC(=O)N1CCC[C@H](c2cc(N3CCOCC3)ncn2)C1", "% Inhibition": -14, "Z score": 1.41}
{"smiles": "Cc1cnccc1CN(C)C(=O)c1ccc([C@H]2CCCNC2)cc1", "% Inhibition": 13, "Z score": -1.83}
{"smiles": "CCn1nc(CN2CCC[C@H](NC(=O)c3cc(Cl)ccc3OC)C2)c2c1CCOC2", "% Inhibition": -5, "Z score": 0.83}
{"smiles": "Cc1oc(-c2cnn(C)c2)nc1C(=O)NC1(CO)CC1", "% Inhibition": 1, "Z score": -0.26}
{"smiles": "CCN1CCN(C(=O)c2cc(-c3ccc(OC)c(S(=O)(=O)N4CCCCC4)c3)[nH]n2)CC1", "% Inhibition": -10, "Z score": 1.58}
{"smiles": "CS(=O)(=O)CC(=O)N1CCNC(=O)[C@@H]1c1ccc(C(F)(F)F)cc1", "% Inhibition": -12, "Z score": 1.05}
{"smiles": "CC(=O)N1CC(OCC(=O)Nc2sc(-c3ccccc3)cc2C#N)C1", "% Inhibition": -12, "Z score": 1.13}
{"smiles": "COc1ccc(NC(=O)Nc2cccc(Cl)c2)cc1N1CCCN(Cc2cccc(Cl)c2)C1=O", "% Inhibition": -10, "Z score": 1.41}
{"smiles": "CCN(CC(=O)Nc1ccc(Br)cc1)C(=O)CCNC(C)=O", "% Inhibition": -4, "Z score": 0.55}
{"smiles": "Cc1cc(C)n(-c2ccc(-c3noc(C(C)(O)C(C)c4ccccc4)n3)cn2)n1", "note": "(configuration not stated)", "% Inhibition": -10, "Z score": 1.45}
{"smiles": "O=C(c1nn(-c2cccc(F)c2)c2c1CCCC2)N1CCn2ncnc2C1", "% Inhibition": -7, "Z score": 1.11}
